Results as given in the supplement of paper PMC10126150.
Sequences with one replicate were seen in a single cluster, so their values are uncertain.

System: ATP
Assay: switch fluorescence ratio, 500 uM ATP over buffer (Cy3 cluster intensity, sum of 5 cycles each) (fold (ratio)); higher = stronger signal-on switching upon ATP binding; sequences stand for … in TCGTCGGCAGCGTCAGATGTGTATAAGAGACAGTTTTTTTTTTTTTTTTTTTTTTTTT…TC
Conditions: aptamer strand: ATP DNA aptamer (quencher-CACCTGGGGGAGTATTGCGGAGGAAGG + anchor), 100 nM annealed; ATP concentration: 500 uM; one replicate
Outline: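 Per cluster, summed Cy3 intensity from the target cycles was divided by that from the buffer cycles to give the fluorescence ratio, then averaged per switch-domain sequence. Clusters outside 100-1000 RFU were excluded. The Cy3-labelled switching-strand clusters, on a modified Illumina MiSeq flow-cell, were annealed to 100 nM quencher-labelled ATP aptamer and imaged in selection buffer, then after 15 min with 500 uM ATP at 22 °C, for five cycles with NaOH stripping and re-annealing between them.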
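Further: ATP exposure 15 min at 22 °C before imaging.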

Sequence	switch fluorescence ratio
AAAAAACAG	1.02
AAAAAACTTA	1.12
AAAAAAGCAA	1.23
AAAAAAGCGA	1.02
AAAAACAATT	0.956
AAAAACATTC	0.978
AAAAACGCTC	0.989
AAAAACTCGC	1.23
AAAAACTTAG	1.19
AAAAAGCCCG	1.04
AAAAAGCGAA	0.998
AAAAAGGTGC	0.949
AAAAATACA	1
AAAAATGTCT	0.961
AAAACACGAG	1.01
AAAACAGACG	1.07
AAAACAGAGG	0.987
AAAACCCTTG	0.98
AAAACGAGC	1.1
AAAACGCAGC	1.14
AAAACTTACG	1.19
AAAAGCATTA	1.04
AAAAGCCCC	1.07
AAAAGCCTCG	0.945
AAAAGCTATA	1.05

Sequence	switch fluorescence ratio
AAAAGGCGAA	1.15
AAAAGGCGCA	1.09
AAAAGGTTCA	0.991
AAAATAGGTT	0.973
AAAATATTGG	0.965
AAAATCATCA	0.999
AAAATCGCAC	1.3
AAAATGTTAA	1.02
AAAATTAAAC	1.04
AAAATTCCGA	1.04
AAAATTCGTG	1.02
AAAATTGTAG	1.01
AAAATTTCAC	0.981
AAACACATAA	1.05
AAACAGCTAT	1.07
AAACAGGGCA	1.02
AAACAGGGTC	1.01
AAACCACCCT	1.26
AAACCACGGC	1.17
AAACCAGTAA	0.967
AAACCCCGAG	1.42
AAACCCTGT	1.01
AAACCGATAA	1.1
AAACCGTCGT	1.04
AAACGAAGTA	1.03

Sequence	switch fluorescence ratio
AAACGAGTAT	1.04
AAACGGAAAC	1.25
AAACGGTTAA	0.954
AAACGTCGAC	0.957
AAACTACCTT	1.24
AAACTAGTAG	0.984
AAACTATGAG	1.04
AAACTCGTGG	0.976
AAACTGACCA	1.1
AAACTTTACT	1.22
AAACTTTTGC	1
AAAGAACATA	1.13
AAAGAACCTG	1.1
AAAGAAGAGC	1.01
AAAGAAGGAG	0.988
AAAGAAGTAT	1.01
AAAGACGGGA	1
AAAGAGGCGC	1.04
AAAGAGGTGG	0.981
AAAGATCGTA	1.03
AAAGATGC	1
AAAGATGCCT	1.02
AAAGATGTTC	1.06
AAAGATTTGG	0.96
AAAGCAGGTG	2.75

Sequence	switch fluorescence ratio
AAAGCCGAGT	0.971
AAAGCCGCCG	1.06
AAAGCCGTTG	1
AAAGCCTTAG	1.03
AAAGCGACCC	1.16
AAAGCGAGAT	0.956
AAAGCGCCGG	1.05
AAAGCTATAA	1.2
AAAGCTCAGT	1.06
AAAGCTTAAT	0.974
AAAGCTTGTT	1
AAAGGAAGCT	1.05
AAAGGACCTT	1.12
AAAGGCCATT	0.97
AAAGGCGAAC	1.04
AAAGGCTCCT	1.03
AAAGGTCACA	1.04
AAAGTAAAAT	1.01
AAAGTAAATC	0.998
AAAGTACAAG	1.18
AAAGTATAGT	1.11
AAAGTATATC	0.978
AAAGTCACGC	1.23
AAAGTCGGAA	0.991
AAAGTCGTTA	0.977

Sequence	switch fluorescence ratio
AAAGTGAAGC	1
AAAGTTATTT	1.05
AAATAAATA	0.966
AAATAAGTAA	0.998
AAATAATGAA	0.977
AAATACCAA	0.985
AAATACTTCG	1.07
AAATAGCACT	1.03
AAATAGTAGG	1.01
AAATAGTAT	0.959
AAATAGTCAC	1.07
AAATATCGCC	1.01
AAATATTG	1.03
AAATCAAAAT	1.45
AAATCACAGC	1.1
AAATCACGAG	1.04
AAATCCACTG	1.03
AAATCGTCA	1.01
AAATCGTGAT	1.01
AAATCTTACC	1.14
AAATCTTATT	1.01
AAATGAAACG	1.02
AAATGCAACG	1.03
AAATGCCGAC	0.977
AAATGCGTGG	0.989

Sequence	switch fluorescence ratio
AAATGGCAGC	1.04
AAATGGTACG	1.04
AAATGGTCGT	1.07
AAATGGTTAT	0.968
AAATGTATAC	1.04
AAATGTTCGG	0.985
AAATGTTGAA	0.957
AAATGTTTAG	0.993
AAATTAACTA	1.05
AAATTAAGGC	1.02
AAATTAATAG	1.03
AAATTACTTA	1.08
AAATTCACT	1.04
AAATTCGAGT	1.05
AAATTCGATA	1.02
AAATTGAAGG	1
AAATTGATTC	1.01
AAATTGGAAA	0.956
AAATTGGGGC	1.01
AAATTGGTCG	1.07
AAATTGTATG	0.983
AAATTTGAGT	0.982
AAATTTGATG	0.997
AAATTTGCGG	0.97
AAATTTTATC	0.947

Sequence	switch fluorescence ratio
AAATTTTGTG	0.954
AACAAAAAGG	1
AACAACTTAT	0.99
AACAAGAGCC	1.03
AACAAGGATC	0.971
AACAAGTCTG	1.12
AACAATATTT	1.02
AACAATCGAC	1.14
AACAATCGGC	1.04
AACAATCTTT	0.999
AACACGCCGG	1.07
AACACTGGGT	1.04
AACACTTTAC	1.38
AACAGAACCG	1.14
AACAGCATCC	1.11
AACAGTTCAA	1.02
AACAGTTGGA	1
AACATAAAGG	0.95
AACATAACAA	1.06
AACATACATA	1.22
AACATCCCTG	1.03
AACATCGAAT	1.04
AACATCGGC	0.974
AACATCGTCC	1.12
AACATTGGTA	1.03

Sequence	switch fluorescence ratio
AACATTTCTG	1.01
AACCAAGTGC	1.1
AACCAATCCT	1.15
AACCACGAGG	1.04
AACCAGGGAC	1.08
AACCATACTT	1.2
AACCATCGCC	1.09
AACCATGCGT	1.03
AACCATGCTA	1.03
AACCATTAGC	1.03
AACCATTTCC	1.88
AACCCAAATA	1.04
AACCCCCTAT	1.22
AACCCTATGT	1.04
AACCGAAAGC	1.32
AACCGAGGTA	0.999
AACCGCAGAA	2.46
AACCGCGCCC	2.58
AACCGCTACA	1.36
AACCGGGTAT	1.02
AACCGTTATG	1.07
AACCTTAATT	1.07
AACCTTAGTT	1.02
AACGAAATCA	1.02
AACGAATAGT	0.995
